# Some of the results follow. Single values of this set are uncertain. Values with irradiation are relative to irradiated vehicle.
# System: A549-Dual
# Assay: NF-kB reporter (SEAP) activity, viability-corrected, relative to vehicle (fold change vs vehicle); higher = more activation of STING-IRF / NF-kB immune response reporter
# Settings: 10 µM; irradiation: none
# 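Wherever NF-kB reporter (SEAP) activity, viability-corrected, relative to vehicle is given: viability correction based on the alamar blue assay, with concentrations leaving 10% survival or less dropped.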
row,Compound,NF-kB reporter
1,COc1cc(CNC(=O)CCCCCCC(C)C)ccc1O [Dihydrocapsaicin],0.482
2,COc1cc2c(cc1OC)C1Cc3ccc(OC)c(OC)c3CN1CC2 (configuration not stated) [Rotundine],0.849
3,Cc1ccc(Sc2ccccc2N2CCNCC2)c(C)c1 [Vortioxetine],0.697
4,O=C(O)CCCCCCCC(O)C(O)CCCCCCO (configuration not stated) [Aleuritic Acid],0.819
5,O.O.OCC1OC(OC2OC(CO)C(O)C(O)C2O)C(O)C(O)C1O [D-(+)-Trehalose dihydrate],0.76
6,O=C1NS(=O)(=O)c2ccccc21 [Saccharin],0.706
7,Clc1ccc(CCC(Cn2ccnc2)Sc2c(Cl)cccc2Cl)cc1.O=[N+]([O-])O (configuration not stated) [Butoconazole nitrate],1.09
8,CCC(C)C(=O)OC1CC(O)C=C2C=CC(C)C(CCC(O)CC(O)CC(=O)O)C21 (configuration not stated) [Pravastatin],0.805
9,Cc1ccc(/C=C2\C(=O)C3(C)CCC2C3(C)C)cc1 (configuration not stated) [4-Methylbenzylidene camphor],0.869
10,Cl.Nc1ccc(N=Nc2ccccc2)c(N)n1 [Phenazopyridine HCl],0.958
11,COc1ccc(O)cc1 [Mequinol],0.929
12,Cl.Cl.N=C(NCCCCCCNC(=N)NC(=N)Nc1ccc(Cl)cc1)NC(=N)Nc1ccc(Cl)cc1 [Chlorhexidine?2HCl],2.62
13,C#CC1(O)CCC2C3CCC4=CC(=O)CCC4C3CCC21CC (configuration not stated) [Norgestrel],0.607
14,CCOC(=O)C(CCc1ccccc1)NC(C)C(=O)N1C(C(=O)O)CC2CCCCC21 (configuration not stated) [Trandolapril],1.25
15,C=CCCCCCCCCC(=O)[O-].C=CCCCCCCCCC(=O)[O-].[Zn+2] [Zinc Undecylenate],0.946
16,"O.c1cnc2c(c1)ccc1cccnc12 [1, 10-Phenanthroline monohydrate]",5.32
17,CCN1CCCC1CNC(=O)c1cc(S(N)(=O)=O)ccc1OC (configuration not stated) [Levosulpiride],0.737
18,CC1OC(OC2C(Oc3cc(O)c(C(=O)CCc4ccc(O)cc4)c(O)c3)OC(CO)C(O)C2O)C(O)C(O)C1O (configuration not stated) [Naringin Dihydrochalcone],0.567
19,CCOC(=O)C(CCc1ccccc1)NC(C)C(=O)N(CC(=O)O)C1Cc2ccccc2C1.Cl (configuration not stated) [Delapril Hydrochloride],0.59
20,CN(C)CC(c1ccc(O)cc1)C1(O)CCCCC1 (configuration not stated) [Desvenlafaxine],1.54
21,CCN1CC(CCN2CCOCC2)C(c2ccccc2)(c2ccccc2)C1=O.Cl.O (configuration not stated) [Doxapram HCl],0.698
22,CC(C)COCC(CN(Cc1ccccc1)c1ccccc1)N1CCCC1.Cl.O (configuration not stated) [Bepridil hydrochloride],0.87
23,O=C(NCc1c(F)cc(F)cc1F)c1cn2c(c(O)c1=O)C(=O)N1C3CCC(C3)OC1C2 (configuration not stated) [Bictegravir],1.51
24,CCCOc1ccc2nc(NC(=O)OC)[nH]c2c1 [Oxibendazole],2.61
25,COC(=O)C1=C(C)NC(C)=C(C(=O)OCCN2CCN(C(c3ccccc3)c3ccccc3)CC2)C1c1cccc([N+](=O)[O-])c1 (configuration not stated) [Manidipine],1.21
26,CCOC(=O)c1ccc(N)cc1.Cl [Benzocaine hydrochloride],0.617
27,COC(=O)C1=C(C)NC(C)=C(C(=O)OC2CCCN(Cc3ccccc3)C2)C1c1cccc([N+](=O)[O-])c1.Cl (configuration not stated) [Benidipine HCl],0.776
28,Clc1ccc2c(c1)CCc1cccnc1C2=C1CCNCC1 [Desloratadine],0.93

# System: A549-Dual
# Assay: ISRE reporter (Lucia luciferase) activity, viability-corrected, relative to vehicle (fold change vs vehicle); higher = more activation of STING-IRF / NF-kB immune response reporter
# Settings: 10 µM; irradiation: 8 Gy/4 fr
row,Compound,ISRE reporter
1,CN1CCc2nc(C(=O)NC3CC(C(=O)N(C)C)CCC3NC(=O)C(=O)Nc3ccc(Cl)cn3)sc2C1.Cc1ccc(S(=O)(=O)O)cc1.O (configuration not stated) [Edoxaban],0.613
2,O=C1C(O)=C(C2CCC(c3ccc(Cl)cc3)CC2)C(=O)c2ccccc21 (configuration not stated) [Atovaquone],0.379
3,CNC1C(O)C(OC2C(NC(=O)C(O)CN)CC(N)C(OC3OC(CN)C(O)C(O)C3O)C2O)OCC1(C)O.O=S(=O)(O)O (configuration not stated) [Isepamicin Sulphate],0.906
4,Cc1cccc(Nc2ccncc2S(=O)(=O)NC(=O)NC(C)C)c1 [Torsemide],0.908
5,Nc1ccc(S(=O)(=O)[N]([Na])c2cnc3ccccc3n2)cc1 [Sulfaquinoxaline sodium],1.02
6,O=C1CC(c2ccc(O)c(O)c2)Oc2cc(O)cc(O)c21 (configuration not stated) [Eriodictyol],1.07
7,Cc1ncc(CSSCc2cnc(C)c(O)c2CO)c(CO)c1O [Pyrithioxin],0.939
8,CCOC(=O)C(CCc1ccccc1)NC1CCc2ccccc2N(CC(=O)O)C1=O.Cl (configuration not stated) [Benazepril HCl],0.873
9,COc1ccc(Cl)cc1C(=O)NCCc1ccc(S(=O)(=O)NC(=O)NC2CCCCC2)cc1 [Glyburide (Glibenclamide)],0.482
10,C[N+](C)(C)CCOP(=O)([O-])OP(=O)([O-])OCC1OC(n2ccc(N)nc2=O)C(O)C1O.[Na+] (configuration not stated) [Citicoline sodium],0.484
11,C=CC(C)(O)CC/C=C(\C)CCC=C(C)C (configuration not stated) [Nerolidol],0.626
12,COc1cc(CNC(=O)CCCCCCC(C)C)ccc1O [Dihydrocapsaicin],0.548
13,COc1cc2c(cc1OC)C1Cc3ccc(OC)c(OC)c3CN1CC2 (configuration not stated) [Rotundine],0.719
14,Cc1ccc(Sc2ccccc2N2CCNCC2)c(C)c1 [Vortioxetine],0.318
15,O=C(O)CCCCCCCC(O)C(O)CCCCCCO (configuration not stated) [Aleuritic Acid],0.617
16,O.O.OCC1OC(OC2OC(CO)C(O)C(O)C2O)C(O)C(O)C1O [D-(+)-Trehalose dihydrate],0.902
17,O=C1NS(=O)(=O)c2ccccc21 [Saccharin],0.905
18,Clc1ccc(CCC(Cn2ccnc2)Sc2c(Cl)cccc2Cl)cc1.O=[N+]([O-])O (configuration not stated) [Butoconazole nitrate],0.614
19,CCC(C)C(=O)OC1CC(O)C=C2C=CC(C)C(CCC(O)CC(O)CC(=O)O)C21 (configuration not stated) [Pravastatin],0.786
20,Cc1ccc(/C=C2\C(=O)C3(C)CCC2C3(C)C)cc1 (configuration not stated) [4-Methylbenzylidene camphor],0.73

row,Compound,ISRE reporter
1,Cl.Nc1ccc(N=Nc2ccccc2)c(N)n1 [Phenazopyridine HCl],0.319
2,COc1ccc(O)cc1 [Mequinol],0.957
3,Cl.Cl.N=C(NCCCCCCNC(=N)NC(=N)Nc1ccc(Cl)cc1)NC(=N)Nc1ccc(Cl)cc1 [Chlorhexidine?2HCl],1.79
4,C#CC1(O)CCC2C3CCC4=CC(=O)CCC4C3CCC21CC (configuration not stated) [Norgestrel],0.451
5,CCOC(=O)C(CCc1ccccc1)NC(C)C(=O)N1C(C(=O)O)CC2CCCCC21 (configuration not stated) [Trandolapril],0.821
6,C=CCCCCCCCCC(=O)[O-].C=CCCCCCCCCC(=O)[O-].[Zn+2] [Zinc Undecylenate],0.71
7,"O.c1cnc2c(c1)ccc1cccnc12 [1, 10-Phenanthroline monohydrate]",0.308
8,CCN1CCCC1CNC(=O)c1cc(S(N)(=O)=O)ccc1OC (configuration not stated) [Levosulpiride],0.604
9,CC1OC(OC2C(Oc3cc(O)c(C(=O)CCc4ccc(O)cc4)c(O)c3)OC(CO)C(O)C2O)C(O)C(O)C1O (configuration not stated) [Naringin Dihydrochalcone],1.1
10,CCOC(=O)C(CCc1ccccc1)NC(C)C(=O)N(CC(=O)O)C1Cc2ccccc2C1.Cl (configuration not stated) [Delapril Hydrochloride],0.81
11,CN(C)CC(c1ccc(O)cc1)C1(O)CCCCC1 (configuration not stated) [Desvenlafaxine],0.832
12,CCN1CC(CCN2CCOCC2)C(c2ccccc2)(c2ccccc2)C1=O.Cl.O (configuration not stated) [Doxapram HCl],0.72
13,CC(C)COCC(CN(Cc1ccccc1)c1ccccc1)N1CCCC1.Cl.O (configuration not stated) [Bepridil hydrochloride],0.37
14,O=C(NCc1c(F)cc(F)cc1F)c1cn2c(c(O)c1=O)C(=O)N1C3CCC(C3)OC1C2 (configuration not stated) [Bictegravir],1.21
15,CCCOc1ccc2nc(NC(=O)OC)[nH]c2c1 [Oxibendazole],0.232
16,COC(=O)C1=C(C)NC(C)=C(C(=O)OCCN2CCN(C(c3ccccc3)c3ccccc3)CC2)C1c1cccc([N+](=O)[O-])c1 (configuration not stated) [Manidipine],0.775
17,CCOC(=O)c1ccc(N)cc1.Cl [Benzocaine hydrochloride],0.596
18,COC(=O)C1=C(C)NC(C)=C(C(=O)OC2CCCN(Cc3ccccc3)C2)C1c1cccc([N+](=O)[O-])c1.Cl (configuration not stated) [Benidipine HCl],0.714
19,Clc1ccc2c(c1)CCc1cccnc1C2=C1CCNCC1 [Desloratadine],0.657
